Paper PMC4336329 (PLoS ONE, 2015)
The campaign covered roughly 310,000 compounds. About 2,200 (0.71%) showed an effect of 50% or more. Effects have a minus sign here. Some of the results follow.

Molecular target: human ether-à-go-go-related gene (hERG) potassium channel (human, UniProt Q12809)
Assay: primary screen, population patch clamp on CHO cells stably expressing hERG

human ether-à-go-go-related gene (hERG) potassium channel, sequence (Q12809 whole entry, looked up): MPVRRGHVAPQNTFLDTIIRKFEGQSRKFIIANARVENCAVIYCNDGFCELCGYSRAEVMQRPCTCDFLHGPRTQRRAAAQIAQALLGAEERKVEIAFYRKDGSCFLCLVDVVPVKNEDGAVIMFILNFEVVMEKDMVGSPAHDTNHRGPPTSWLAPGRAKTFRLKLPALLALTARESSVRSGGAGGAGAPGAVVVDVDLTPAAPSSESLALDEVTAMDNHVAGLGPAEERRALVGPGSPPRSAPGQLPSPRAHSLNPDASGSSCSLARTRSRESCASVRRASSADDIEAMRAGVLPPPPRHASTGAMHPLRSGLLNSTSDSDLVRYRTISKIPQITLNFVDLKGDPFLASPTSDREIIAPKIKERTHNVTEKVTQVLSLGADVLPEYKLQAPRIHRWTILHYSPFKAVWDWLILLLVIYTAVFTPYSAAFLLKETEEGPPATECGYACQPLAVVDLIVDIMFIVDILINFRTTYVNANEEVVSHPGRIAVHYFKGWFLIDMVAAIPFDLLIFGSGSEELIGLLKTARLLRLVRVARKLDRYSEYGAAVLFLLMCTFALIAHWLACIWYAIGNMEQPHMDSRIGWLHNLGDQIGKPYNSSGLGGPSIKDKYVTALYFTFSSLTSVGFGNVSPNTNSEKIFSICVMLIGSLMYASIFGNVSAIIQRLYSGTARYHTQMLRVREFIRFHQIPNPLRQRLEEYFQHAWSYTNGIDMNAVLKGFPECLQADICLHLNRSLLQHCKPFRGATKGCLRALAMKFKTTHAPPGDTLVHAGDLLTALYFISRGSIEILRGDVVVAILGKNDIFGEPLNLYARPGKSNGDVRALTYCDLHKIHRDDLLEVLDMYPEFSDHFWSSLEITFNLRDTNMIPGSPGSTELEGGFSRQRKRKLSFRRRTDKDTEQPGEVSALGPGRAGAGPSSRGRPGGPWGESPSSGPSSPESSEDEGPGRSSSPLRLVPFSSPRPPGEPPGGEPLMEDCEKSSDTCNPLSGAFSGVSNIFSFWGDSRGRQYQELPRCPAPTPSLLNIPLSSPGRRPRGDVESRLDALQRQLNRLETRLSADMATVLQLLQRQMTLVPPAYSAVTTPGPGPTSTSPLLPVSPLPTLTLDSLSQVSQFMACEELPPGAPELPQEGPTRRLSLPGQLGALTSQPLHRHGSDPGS

SMILES	hERG current change (%, negative = inhibition) at 1uM [%]
Cc1c(Br)c(C(F)(F)F)nn1CC(=O)NCCCn1ccnc1	-1.72
CC(C)Cn1c(-c2ccc(C#N)cc2)nc2c1c(=O)[nH]c(=O)n2CC(C)C	2.59
CN(c1ccccc1C(=O)NCC1CCCO1)S(C)(=O)=O (stereo not drawn)	9.73
Fc1cccc(Cc2noc(CN3CCCN(C4Cc5ccccc5C4)CC3)n2)c1	-86.9
Cc1ccc(C(=O)Nc2cccc(C(=O)NC3CCCCC3)c2)cc1	10.2
COc1cc(C2SCC(=O)N2CCCN(C)C)cc(OC)c1OC.Cl (stereo not drawn)	13.1
CCCCNC(=O)CC1C(=O)N(Cc2ccccc2)C(C)c2nc3ccccc3n21 (stereo not drawn)	6.07
N=c1c(C(=O)NCCN2CCOCC2)cc2c(=O)n3ccccc3nc2n1CCc1ccccc1	-33.1
COC(=O)c1cccc(NC(=O)/C=C/c2ccc3c(c2)OCO3)c1	1.54
COc1ccc(NC(=O)c2ccc(OC)cc2)cc1	0.831
CC(C)N=C(NS(=O)(=O)c1ccccc1)C(Cl)(Cl)Cl	2.91
CN1CCN(CC(=O)Nc2nnc(-c3cccs3)s2)CC1	4.05
CN1C(=C2C(=O)OC(C)(C)OC2=O)Sc2ccccc21	10.9
O=C(CSCc1ccccc1)Nc1cccc(F)c1	10.5
COc1ccc(OCC2CNC(=O)O2)cc1 (stereo not drawn)	4.78
COCCNc1ccc(-c2n[nH]c(=O)c3ccccc23)cc1[N+](=O)[O-]	12.3
CCOC(=O)C1(CCOc2ccccc2)CCN(CC(O)CO)CC1 (stereo not drawn)	1.95
Cc1ccc(Cl)cc1-c1ccc(/C=N/n2cnnc2)o1	-2.37
CCOC(=O)c1ccc(S(=O)(=O)NC2CC2)cc1	10.1
N#Cc1ccc(-c2ccc(C3Nc4ccccc4C(=O)N3O)o2)cc1 (stereo not drawn)	6.27
N#C/C(=C\Nc1ccccc1SC(F)(F)F)c1nc(-c2ccc(Cl)cc2)cs1	9.96
COc1ccc(C2c3ccc(O)cc3Oc3ncn(CCN4CCOCC4)c(=N)c32)cc1 (stereo not drawn)	-2.19
Cn1ccsc1=NC(=O)c1ccc(Cl)cc1	-6.2

SMILES	hERG current change (%, negative = inhibition) at 1uM [%]
COC(=O)c1c(NC(=O)C2C3CCC(O3)C2C(=O)O)sc2c1CCCCCC2 (stereo not drawn)	1.6
NC1=C(c2ccc([N+](=O)[O-])cc2)C(=O)CO1	8.03
CCOc1cc(NC(=O)C2CCCO2)c(OCC)cc1NC(=O)C1CC1 (stereo not drawn)	-2.85
CC(C)c1cccc(C2=CC(=O)C[C@H](c3ccc(F)cc3)C2)c1	13.7
COC(=O)c1ccc(NC(=O)c2cccc(OC)c2)cc1	7.39
COc1ccc(OCC(O)CN2CCC(CN3C(=O)c4cccc5cccc(c45)C3=O)CC2)cc1.Cl (stereo not drawn)	-19.4
CCOc1cc(/C=N/NC(=O)c2cc(C3CC3)[nH]n2)ccc1O	7.24
COc1ccccc1N1C(=O)CC(N2CCN(c3ccc([N+](=O)[O-])cc3)CC2)C1=O (stereo not drawn)	-16.3
Cc1ccc(C(=O)N/C(=C\c2ccco2)C(=O)NCCCn2ccnc2)cc1C	-15.7
COC(=O)C1(CO)NC(c2cccs2)C2C(=O)N(c3ccccc3)C(=O)C21 (stereo not drawn)	10.8
O=C1N/C(=C/c2cccn2-c2ccccc2)C(=O)N1c1cccc(Cl)c1	8.91
CCOC(=O)CNC(=O)CN1CCC(c2nc3ccccc3[nH]2)CC1	15.1
Cc1ccc(S(=O)(=O)N2CCOCC2)cc1C(=O)NCCCn1ccnc1	15.7
Cn1c2ccccc2c(=O)c2cc(C#CC3=CCCCC3)ccc21	4.55
O=C(NCCN1CCN(C(=O)c2ccc([N+](=O)[O-])cc2)CC1)C(=O)NCc1ccccc1	-85.9
Cc1cc(C)n2nc(C(=O)OCC(=O)N3CCC3)nc2n1	12.9
Cc1cc(C(=O)NC2CCCc3c2cnn3-c2ccc(C)c(C)c2)nc(C)n1 (stereo not drawn)	6.9
COc1ccc(NS(=O)(=O)c2cc(NC(=O)c3cnc(C)cn3)ccc2N2CCCCC2)cc1	13.4
O=c1c(Cl)c(N2CCNCC2)cnn1C12CC3CC(CC(C3)C1)C2	11.4
Cc1ccc(OCCNC(=O)CNC(=O)c2ccc(C)cc2)cc1	2.59
CCCNC(=O)C1CCN(S(=O)(=O)c2ccc(Br)cc2)CC1	1.4
Cc1cc(OC(=O)c2ccc(S(=O)(=O)N3CCCCC3)cc2)c([N+](=O)[O-])c(=O)[nH]1	16
COc1ccc(CCNC(=O)CN2CCN(c3ccccc3Cl)CC2)cc1	11.4

SMILES	hERG current change (%, negative = inhibition) at 1uM [%]
COc1ccc(C(CNC(=O)COc2cc(C)ccc2Cl)N2CCCCC2)cc1 (stereo not drawn)	6.35
O=C(Nc1cccc2ccccc12)N1CCc2ccccc2C1	5.49
O=C(CSc1nc(C2CCCCC2)n(-c2ccccc2)n1)NCC(F)(F)F	5.13
COc1ccccc1N1CCN(C(=O)c2cc3c(s2)CCC3)CC1	-3.63
CCN(CC)S(=O)(=O)c1cccc(C(=O)NC(C(=O)NC2=NCCS2)C(C)C)c1 (stereo not drawn)	-3.28
O=S(=O)(c1ccc2c(c1)OCCO2)N1CCNCC1	12
CCOc1ccc(NC(=O)c2cc(S(=O)(=O)N3CCOCC3)cn2C)cc1	17.3
O=C(O)C1CCCCN1S(=O)(=O)c1ccc(Cl)s1 (stereo not drawn)	2.32
CC(C)CN1CC(C(=O)O)CC1=O (stereo not drawn)	20.4
Cc1c(NC(=S)NC(=O)c2ccccc2)c(=O)n(-c2ccccc2)n1C	8.94
O=C(NC(=S)Nc1ccccc1)c1cccs1	16.6
O=C(COc1ccc(Cl)cc1)Nc1ccc(Cc2ccncc2)cc1	-7.88
OCCN1c2ccccc2CCc2ccccc21	8.03
Oc1ccc(C2=NNC(=NCc3ccc4c(c3)OCO4)SC2)c(O)c1	10.8
O=C1NN(c2ccccc2)C(=O)/C1=C/c1ccc(-c2ccc(C(=O)O)cc2)o1	19
CCOc1cc(N2CCOCC2)c(OCC)cc1NC(=O)COC(=O)CCOc1cc(C)ccc1C	11.7
O=C(NCCc1ccc(Cl)cc1)Nc1ccc(F)cc1	10.4
COCCn1nnnc1C(c1cc2cc(OC)ccc2[nH]c1=O)N1CCC(Cc2ccccc2)CC1 (stereo not drawn)	5.45
O=C(c1csc2c1CCCC2)n1cccn1	12.4
COc1cccc(CNC(=O)COC(=O)CCc2cc(OC)c(OC)c(OC)c2)c1	7.59
Cc1cnc(C(=O)OCC(=O)NC23CC4CC(CC(C4)C2)C3)cn1	-12.2
Cc1cc(=O)[nH]c(Nc2ccccc2C)n1	2.3
Oc1ccc(/C=C/c2ccc3ccccc3n2)cc1	24.5

SMILES	hERG current change (%, negative = inhibition) at 1uM [%]
COc1ccc(NC(=S)N2CCN(Cc3ccco3)CC2)c(OC)c1	16.4
CC(=O)c1ccc(N=Nc2ccc(N(C)C)cc2)cc1	16
CCN(CC)c1ccc(NC(=S)NC(=O)Cc2ccccc2)cc1	7.06
CN(CC(=O)Nc1ccc(F)cc1)c1ccc(S(=O)(=O)N2CCCC2)cn1	7.54
O=C(c1cccc(Br)c1)N1CCN(c2ccc(N3CCOCC3)nn2)CC1	-2.13
O=C(/C=C/c1ccco1)NC(=S)Nc1ccccc1O	14.4
COc1ccc2oc(=O)c(C(=O)Nc3cccc(C)c3)cc2c1	14.7
COCCNC(C(=O)Nc1cc(Cl)cc(Cl)c1)c1ccccc1 (stereo not drawn)	4.71
CCc1c(C)c(C#N)c2nc3ccccc3n2c1N(C)C	9.46
CCn1c(SCC(=O)NCC2CCCO2)nnc1-c1ccc(S(=O)(=O)N2CCN(C)CC2)cc1 (stereo not drawn)	8.9
O=C(N/N=C/c1ccccn1)C12CC3CC(CC(C3)C1)C2	8.79
CCCOc1cccc(-c2nnc(NC(=O)c3ccco3)s2)c1	-6.8
O=C(NCc1ccccc1)c1ncn[nH]1	6.05
CC(=O)NC(Cc1ccc(F)cc1)C(=O)NC1CCN(C(=O)Nc2cccc(C)c2)CC1 (stereo not drawn)	13.1
CC(=O)c1cccc(N2C(=NC(=O)COc3ccccc3)SC3CS(=O)(=O)CC32)c1 (stereo not drawn)	16.7
C/C(=N\NC(=O)COc1ccccc1-c1ccccc1)c1ccc(O)cc1O	16.4
CCOC(=O)Cc1csc(NC(=O)c2ccc(S(=O)(=O)N3CCOCC3)cc2)n1	6.98
CCC(=O)NC(=S)Nc1ccc(S(=O)(=O)NC(C)C)cc1	-4.95
Cc1nc2cc(C(=O)NCc3cccnc3)ccc2n1-c1ccc(F)cc1F	6.7
Cc1ccc(C(C(=O)NCc2ccco2)N(C(=O)CNC(=O)c2cccs2)c2c(C)cccc2C)cc1 (stereo not drawn)	13.1
CC1(C)COC(Nc2ccc(Cl)cc2)=N1	11.7
